Measurements taken from the supplement of paper PMC7826260.
Some of the results follow. The data describe in vitro nicking of single-stranded DNA by Rep domains at 3 µM enzyme and 37 °C for 1 h; the strands have 90 letters, of which the middle is given. The score is log2 (uncut reads / reads without enzyme); uncut sequences lie near 0, cut ones below; no hit call is given. Because reads are shares of a total, they shift together, so uncut sequences can rise above 0 when many others are cut.

How the values were obtained:
Assay in all cases: uncleaved DNA left, log2 of reads against the no-enzyme library (log2 ratio); higher = less cleavage (more negative = more Rep cleavage of the k-mer); sequences stand for … in CTCGTCCG…ACCGGAGA
[1] = tested on: T1, Rep nickase domain of Muscovy duck circovirus
T1 sequence (protein, residues 1-111, tag omitted): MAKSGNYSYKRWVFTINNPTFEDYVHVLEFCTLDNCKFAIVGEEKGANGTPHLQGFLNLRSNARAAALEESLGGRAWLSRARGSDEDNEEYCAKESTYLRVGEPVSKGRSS
Description: (§1)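 A pool of 90-nt single-stranded DNAs with seven random bases just before the constant AC of the nick site (name = the seven bases) was cut by 3 µM recombinant His6-SUMO-tagged Rep nickase domain (300 nM DNA, 50 mM HEPES pH 8.0, 50 mM NaCl, 1 mM MnCl2, 1 h, 37 °C, three replicates). Uncut DNA was amplified and sequenced.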

[2] = tested on: T2, Rep nickase domain of banana bunchy top virus
T2 sequence (protein, residues 1-94, tag omitted): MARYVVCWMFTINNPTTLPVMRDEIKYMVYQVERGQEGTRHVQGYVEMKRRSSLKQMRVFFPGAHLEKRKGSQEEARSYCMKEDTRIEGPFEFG
Description: as §1

[3] = tested on: T3, Rep nickase domain of cabbage leaf curl virus
T3 sequence (protein, residues 1-116, tag omitted): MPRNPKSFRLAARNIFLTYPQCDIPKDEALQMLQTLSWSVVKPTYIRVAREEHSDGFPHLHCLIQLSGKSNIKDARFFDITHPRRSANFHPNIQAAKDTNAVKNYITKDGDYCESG
Description: as §1

[4] = tested on: T4, Rep nickase domain of chickpea chlorotic dwarf virus
T4 sequence (protein, residues 1-124, tag omitted): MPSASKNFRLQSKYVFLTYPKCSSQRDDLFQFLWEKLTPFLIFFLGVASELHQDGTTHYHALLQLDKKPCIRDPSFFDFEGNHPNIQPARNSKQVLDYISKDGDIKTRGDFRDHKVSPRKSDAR
Description: as §1

[5] = tested on: T5, Rep nickase domain of faba bean necrotic yellows virus
T5 sequence (protein, residues 1-98, tag omitted): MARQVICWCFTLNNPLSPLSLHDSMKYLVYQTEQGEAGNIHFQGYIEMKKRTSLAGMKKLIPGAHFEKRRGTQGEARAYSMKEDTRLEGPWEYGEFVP
Description: as §1

[6] = tested on: T6, Rep nickase domain of maize striate mosaic virus
T6 sequence (protein, residues 1-117, tag omitted): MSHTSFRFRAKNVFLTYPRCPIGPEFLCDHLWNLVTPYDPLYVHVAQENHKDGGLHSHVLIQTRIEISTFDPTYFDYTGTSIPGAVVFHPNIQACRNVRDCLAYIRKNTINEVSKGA
Description: as §1

[7] = tested on: T7, Rep nickase domain of porcine circovirus 2
T7 sequence (protein, residues 2-116, tag omitted): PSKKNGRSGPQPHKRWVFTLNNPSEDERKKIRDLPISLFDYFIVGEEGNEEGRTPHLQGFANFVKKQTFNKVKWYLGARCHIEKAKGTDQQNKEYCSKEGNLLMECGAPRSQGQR
Description: as §1

[8] = tested on: T8, Rep nickase domain of tomato golden mosaic virus
T8 sequence (protein, residues 1-124, tag omitted): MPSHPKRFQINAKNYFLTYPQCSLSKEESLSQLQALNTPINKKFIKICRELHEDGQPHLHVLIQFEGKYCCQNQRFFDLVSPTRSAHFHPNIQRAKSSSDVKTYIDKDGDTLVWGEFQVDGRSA
Description: as §1

[9] = tested on: T9, Rep nickase domain of tomato yellow leaf curl virus
T9 sequence (protein, residues 1-136, tag omitted): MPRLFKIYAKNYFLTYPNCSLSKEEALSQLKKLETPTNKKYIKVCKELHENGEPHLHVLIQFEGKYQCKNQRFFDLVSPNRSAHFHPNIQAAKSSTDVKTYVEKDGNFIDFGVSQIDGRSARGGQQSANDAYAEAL
Description: as §1

[10] = tested on: T10, Rep nickase domain of wheat dwarf virus
T10 sequence (protein, residues 1-137, tag omitted): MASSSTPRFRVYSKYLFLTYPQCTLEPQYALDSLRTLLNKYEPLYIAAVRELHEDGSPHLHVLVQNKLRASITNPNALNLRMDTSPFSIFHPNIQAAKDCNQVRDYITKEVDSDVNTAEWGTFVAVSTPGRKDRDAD
Description: as §1

Sequence | uncleaved DNA left (log2) [1] | uncleaved DNA left (log2) [2] | uncleaved DNA left (log2) [3] | uncleaved DNA left (log2) [4] | uncleaved DNA left (log2) [5] | uncleaved DNA left (log2) [6] | uncleaved DNA left (log2) [7] | uncleaved DNA left (log2) [8] | uncleaved DNA left (log2) [9] | uncleaved DNA left (log2) [10]
CCTGGCG | -0.124 | -0.0904 | -0.791 | 0.48 | -0.039 | -0.476 | 0.1 | 0.0199 | -0.0491 | -0.113
CTGATGT | 0.044 | -0.162 | -0.0602 | -0.459 | 0.047 | -0.835 | -0.0613 | -0.156 | -0.105 | -0.0808
GGGATTT | -0.00548 | 0.168 | 0.929 | 2 | -0.0768 | 2.29 | 0.261 | -0.0636 | 0.124 | 0.164
CACTCTG | -0.00481 | -0.277 | -0.192 | -0.133 | -0.0941 | -0.3 | -0.198 | -0.0522 | -0.0761 | -0.163
ACGCAGC | 0.0941 | -0.0226 | -0.518 | -0.479 | -0.0314 | -1.09 | 0.127 | -0.107 | -0.121 | -0.16
GTTTGCC | -0.0623 | -0.00599 | -0.141 | 0.241 | -0.082 | -0.373 | -0.0125 | -0.0747 | 0.000127 | -0.0771
CAGTCCC | 0.00719 | -0.0298 | 0.0111 | -0.157 | -0.19 | 0.0398 | -2.74 | 0.022 | 0.0653 | 0.0818
CTACAAT | 0.012 | 0.0226 | -0.342 | -2.16 | -0.137 | -0.699 | -0.147 | -0.155 | 0.0481 | -0.0416
TATAGGA | 0.0712 | 0.0505 | 0.21 | 0.459 | 0.222 | -0.223 | 0.198 | 0.26 | 0.0668 | 0.048
TGTGGGC | 0.0281 | 0.0436 | 0.536 | 0.928 | 0.0707 | 1.06 | 0.16 | 0.0695 | 0.0438 | 0.0633
CTACAGG | -0.1 | 0.0705 | 0.142 | 0.613 | 0.0256 | 0.355 | 0.0589 | 0.0753 | -0.0499 | -0.0706
GAAGTAC | 0.0218 | -0.0271 | 0.115 | 0.362 | -0.06 | 0.37 | 0.0469 | 0.0372 | 0.0763 | 0.0562
AAAATCC | -0.016 | -0.022 | -0.0211 | -0.446 | -0.0379 | -0.608 | 0.0383 | 0.0014 | -0.0854 | -0.0236
TCCAGCG | 0.143 | -0.00341 | -0.618 | 0.613 | 0.0358 | -0.655 | 0.17 | -0.00218 | 0.0147 | 0.043
TTTCAAA | 0.0415 | 0.0755 | 0.222 | 0.334 | 0.201 | 0.215 | 0.115 | 0.096 | 0.121 | 0.104
GATCATG | 0.0869 | 0.0197 | -0.00433 | 0.269 | -0.0507 | -0.421 | 0.0901 | -0.117 | -0.12 | -0.0549
GTGCACG | 0.0087 | -0.00926 | -0.53 | -0.159 | 0.0231 | -0.49 | 0.102 | 0.0448 | -0.00675 | -0.1
ACGGAGG | 0.136 | -0.0814 | -0.281 | -0.255 | 0.0608 | -0.985 | 0.25 | 0.0839 | 0.0418 | -0.12
GACTTCA | -0.131 | -0.0669 | 0.211 | -0.523 | -0.0603 | 0.843 | -1.95 | -0.0709 | -0.0621 | -0.0289
GCAGAGC | -0.0172 | -0.055 | -0.222 | -0.0553 | 0.0294 | -0.812 | 0.135 | 0.126 | 0.0683 | -0.101
CGGGCGC | -0.0952 | 0.0308 | -0.102 | 0.0551 | 0.036 | -0.0192 | 0.127 | 0.0626 | -0.0434 | 0.0057
CCTTACT | -3.22 | -0.743 | -0.504 | -2.91 | -0.0622 | -1.01 | -3.6 | -0.0143 | -0.0505 | -0.311
GTACAGA | 0.0367 | 0.0712 | 0.42 | 0.928 | 0.0541 | 1.53 | 0.123 | 0.0989 | -0.0034 | 0.0607
TTCTATT | -3.78 | -2.68 | -2.31 | -2.83 | -0.251 | -0.87 | -3.49 | -0.384 | -0.144 | -0.669
AGTCTGC | -0.0514 | 0.0297 | -0.168 | 0.211 | -0.101 | -0.104 | 0.105 | -0.0856 | -0.182 | -0.0627
ACCACTC | -0.0603 | -0.118 | -0.146 | -0.439 | -0.042 | -0.726 | 0.0602 | -0.113 | -0.233 | -0.148
CTCTGAA | 0.0191 | 0.194 | 0.138 | -0.332 | -0.0933 | -0.468 | -0.0597 | 0.0754 | 0.00685 | 0.154
CAGTGAC | -0.063 | -0.00605 | 0.094 | 0.437 | 0.112 | 0.0872 | -0.0017 | 0.0211 | -0.0496 | -0.0585
ACGAATT | -0.0706 | -0.0934 | -0.331 | -2.05 | -0.0112 | -0.404 | -0.595 | -0.013 | -0.115 | -0.0209
TAATTCT | -4.04 | -2.22 | -4.94 | -3.66 | -0.262 | -4.52 | -4.43 | -4.64 | -3.52 | -5.01
